The full ranking holds about 18,000 sequences; the median of “TetR repression strength (sort-seq, GFP reporter)” is about 0.23, and the highest 2% start at about 0.68. This is one part of the list.

Sequence of UniProt P04483 (P04483 whole entry): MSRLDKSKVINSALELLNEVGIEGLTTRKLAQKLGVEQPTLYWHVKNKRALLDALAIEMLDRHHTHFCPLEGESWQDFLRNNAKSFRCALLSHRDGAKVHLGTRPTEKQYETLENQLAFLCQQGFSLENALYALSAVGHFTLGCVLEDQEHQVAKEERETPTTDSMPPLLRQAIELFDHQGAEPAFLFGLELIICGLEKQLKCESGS

This assay addresses TetR (class B, Tn10) (UniProt P04483). Briefly: TetR repression strength (sort-seq, GFP reporter) (relative to tetO2 = 1); higher = stronger repression. As to conditions: E. coli. The method in brief:
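In LB with 50 µg/mL chloramphenicol, E. coli SIG10-MAX holding a low-copy library with eight randomized operator positions between a constitutive promoter and sfGFP, plus constitutive TetR, grew for 5 h at 37 °C. FACS then sorted 10^6 cells into 13 fluorescence bins for Illumina sequencing of each bin. Repression strength equals the top bin index plus one less the read-weighted mean bin, normalized to the unaltered operator. Values from three independent transformations were averaged when reads were ≥30 in every replicate and the CV was ≤0.5.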
As to TCCCAACAAGTATCTGAGA, the TetR repression strength was 0.112. On to TCCCATAAAGTCCGTGAGA, for which the TetR repression strength is 0.338. In the case of TCCCAGAGAGTGAGTGAGA it was 0.188; in that of TCCCGCGCAGTGATTGAGA, 0.444; in that of TCCCATCGAGTCATCGAGA, 0.229. In the case of TCCCATAAAGTTCATGAGA it was 0.36; in that of TCCCGCGGAGTCTTGGAGA, 0.21; in that of TCCCAGTAAGTACACGAGA, 0.213. The figure for TCCCTGATAGTGGTAGAGA is 0.065. In the case of TCCCAGAAAGTGGATGAGA, the TetR repression strength was 0.0183. In the case of TCCCGGCAAGTAAGCGAGA it was 0.0864.

In turn, TCCCATTGAGTACCCGAGA yielded a TetR repression strength of 0.414. In the case of TCCCGGTTAGTCGTGGAGA it was 0.199.

As for TCCCTTCTAGTCGTCGAGA, the TetR repression strength came to 0.397. The figure for TCCCGGTAAGTCGGGGAGA is 0.171; for TCCCGTCAAGTTATCGAGA it is 0.21; for TCCCGTGTAGTGAATGAGA it is 0.204. In the case of TCCCACAAAGTGGCCGAGA it was 0.163. The figure for TCCCAGAGAGTACATGAGA is 0.306; for TCCCGACTAGTTTAGGAGA it is 0.298. TCCCAATAAGTAATGGAGA: the TetR repression strength came to 0.352. In the case of TCCCGAGTAGTTTATGAGA it was 0.247; in that of TCCCCTCAAGTTGGAGAGA, 0.0403. As for TCCCCCTCAGTGGTAGAGA, the TetR repression strength was determined as 0.399.

Regarding TCCCCTTTAGTGGAGGAGA, the TetR repression strength was 0.184. In the case of TCCCTACGAGTAAGCGAGA it was 0.164. Regarding TCCCACCAAGTACAGGAGA, the TetR repression strength worked out at 0.186. TCCCCGAGAGTGAGGGAGA registered a TetR repression strength of 0.129.

Regarding TCCCTTGGAGTGCAGGAGA, the TetR repression strength amounted to 0.0653. The sequence TCCCCGAGAGTTTTCGAGA had a TetR repression strength of 0.224. The figure for TCCCGCGGAGTGGCCGAGA is 0.171; for TCCCTAGAAGTTTTAGAGA it is 0.171; for TCCCCGAAAGTAGCTGAGA it is 0.253. TCCCGTTCAGTCGGGGAGA returned a TetR repression strength of 0.315. In the case of TCCCTGGGAGTATATGAGA it was 0.643; in that of TCCCGGCTAGTATACGAGA, 0.226; in that of TCCCCGCAAGTGTTGGAGA, 0.0176. The figure for TCCCTCGCAGTATTAGAGA is 0.398; for TCCCGGGAAGTGGGGGAGA it is 0.274. In the case of TCCCGCGCAGTTGACGAGA it was 0.361; in that of TCCCTAGCAGTACAAGAGA, 0.0777.

Consider TCCCACGTAGTGGTAGAGA, for which the TetR repression strength amounted to 0.214.

Consider TCCCGTCCAGTTTCCGAGA, for which the TetR repression strength is 0.287. In the case of TCCCGGAAAGTGCCAGAGA it was 0.323. Consider TCCCTGCGAGTGGCTGAGA, for which the TetR repression strength is 0.148. Consider TCCCAGTGAGTGGCCGAGA, for which the TetR repression strength came out at 0.239. In the case of TCCCGAAGAGTTGGCGAGA it was 0.111. The figure for TCCCGGCGAGTGAGCGAGA is 0.262; for TCCCTGTAAGTATTTGAGA it is 0.253. In the case of TCCCGTGCAGTCTTCGAGA it was 0.514; in that of TCCCTTCGAGTCGGAGAGA, 0.17; in that of TCCCCTACAGTGGGGGAGA, 0.207. TCCCATGAAGTAACGGAGA yielded a TetR repression strength of 0.0402. In the case of TCCCACTGAGTGCAGGAGA it was 0.136. The figure for TCCCTATGAGTGCACGAGA is 0.483; for TCCCCAATAGTAGACGAGA it is 0.295. In the case of TCCCGGGAAGTTTGTGAGA it was 0.247; in that of TCCCATACAGTGAAGGAGA, 0.183. Regarding TCCCAAGTAGTCCATGAGA, the TetR repression strength worked out at 0.257. In the case of TCCCAGGGAGTCCTCGAGA it was 0.267; in that of TCCCAACCAGTACTGGAGA, 0.0854; in that of TCCCTAGGAGTAGTTGAGA, 0.252.

Sequence TCCCAGTTAGTGCTTGAGA showed a TetR repression strength of 0.327. The figure for TCCCCGGAAGTTCGTGAGA is 0.137; for TCCCGGCTAGTCACAGAGA it is 0.479; for TCCCGTCTAGTAGTGGAGA it is 0.468. On to TCCCGCGTAGTGCGGGAGA, for which the TetR repression strength came to 0.292.

The sequence TCCCGAGCAGTATAGGAGA came in with a TetR repression strength of 0.334.

TCCCGTAGAGTTTGTGAGA: the TetR repression strength came to 0.179. In the case of TCCCCGAGAGTAAACGAGA it was 0.4. The figure for TCCCGCCGAGTCCTAGAGA is 0.636; for TCCCTGTAAGTTCGCGAGA it is 0.128; for TCCCAATAAGTTTGGGAGA it is 0.167.

In turn, TCCCTTGGAGTGGTGGAGA had a TetR repression strength of 0.222. The figure for TCCCAACCAGTGGTCGAGA is 0.057. Sequence TCCCCTAGAGTCGGGGAGA returned a TetR repression strength of 0.175. TCCCTAGGAGTGCTTGAGA gave a TetR repression strength of 0.57. The figure for TCCCTACTAGTATGTGAGA is 0.426; for TCCCAACCAGTGGTAGAGA it is 0.363. Take TCCCAATCAGTTATAGAGA: the TetR repression strength is 0.58. In the case of TCCCAGCAAGTTCGGGAGA it was 0.241; in that of TCCCAGACAGTGGTAGAGA, 0.194; in that of TCCCCTATAGTACTAGAGA, 0.317. In the case of TCCCGACTAGTTAGTGAGA it was 0.25. In the case of TCCCCACGAGTTGGAGAGA it was 0.277; in that of TCCCTTTCAGTGTAAGAGA, 0.296; in that of TCCCGCTGAGTTTTGGAGA, 0.411. Turning to TCCCGGGCAGTAGGTGAGA, the TetR repression strength was 0.61. In turn, TCCCTCAAAGTGTCCGAGA displayed a TetR repression strength of 0.31. The figure for TCCCTTGAAGTACTCGAGA is 0.155. Sequence TCCCCAAGAGTCCAGGAGA showed a TetR repression strength of 0.132. In the case of TCCCGCTGAGTCGTTGAGA it was 0.136; in that of TCCCGCAGAGTTGAAGAGA, 0.285; in that of TCCCCCAAAGTATGTGAGA, 0.23. In the case of TCCCTTGGAGTTGCCGAGA it was 0.246; in that of TCCCCACCAGTAGATGAGA, 0.346. The figure for TCCCCTCCAGTGTGGGAGA is 0.133.

Take TCCCGTTAAGTGCCTGAGA: the TetR repression strength came to 0.419. TCCCTACCAGTTGGGGAGA: the TetR repression strength was found to be 0.288. The figure for TCCCTGCAAGTGGGAGAGA is 0.321; for TCCCGTCCAGTGCTGGAGA it is 0.212; for TCCCCTGCAGTGATAGAGA it is 0.492.

The values are drawn from a collection of fitness landscapes (doi:10.1038/s41467-024-54723-y).
